Screen size: about 290,000 compounds; about 2,100 (0.72%) were called active. The inconclusive results got no clear call from the source; some entries with a clear call stand among them for comparison. The call rests on the fitted dose curve; in most records, active means well fitted inhibition curve with a large enough effect; inconclusive means small, poorly fitted or top-dose-only effect, or effect the other way; inactive means flat fitted curve, though single readings scatter. Potencies beside an inconclusive call are fits to weak or partial responses and may not hold up.
These compounds were tested against Fructose-bisphosphate aldolase (Giardia intestinalis (strain ATCC 50803 / WB clone C6)) (UniProt A8B2U2) (assay: qHTS Assay for Inhibitors of Fructose-1,6-bisphosphate Aldolase from Giardia Lamblia). Details: purified Giardia FBPA; activity, negative = inhibition: at 59.6 µM (top of the series) unless noted.
UniProt A8B2U2, sequence (A8B2U2 whole entry, looked up): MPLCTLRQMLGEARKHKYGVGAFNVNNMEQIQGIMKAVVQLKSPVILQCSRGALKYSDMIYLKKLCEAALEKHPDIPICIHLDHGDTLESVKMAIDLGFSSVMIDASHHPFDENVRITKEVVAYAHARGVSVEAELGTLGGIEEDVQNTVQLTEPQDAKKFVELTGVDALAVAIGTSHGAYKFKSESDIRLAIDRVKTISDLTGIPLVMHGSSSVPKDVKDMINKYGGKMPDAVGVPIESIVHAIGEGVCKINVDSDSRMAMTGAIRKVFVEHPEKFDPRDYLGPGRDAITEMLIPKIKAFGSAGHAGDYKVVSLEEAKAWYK
Method in brief: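 Giardia FBPA (40 nM reagent) was preincubated 10 min at RT with compound (up to 57.5 uM final), then substrate plus GAPDH/TPI/NAD/arsenate coupling system with diaphorase/resazurin was added; resorufin fluorescence (525/598 nm) was read after 20 min.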
Further: nearly all actives have a fitted effect of over 55% in size.
On the % scale 0 is the no-effect control and ±100 the full control effect; potency means the concentration at half of the fitted maximal effect; tags describe the fitted curve by direction and shape.

SMILES | Potency | activity, negative = inhibition
CC(=O)c1cccc(NC(=O)c2ccccc2-c2ccccc2C(=O)O)c1 | inconclusive: 15.8 µM [activator, partial curve] | –
CCCCOC(=O)C1=C(C)NC2=C(C(=O)CCC2)C1c1cc(OC)ccc1OC (stereo not given) | – | inactive: -7.65%
Clc1ccc2nc(C3CCN(Cc4ccccc4)CC3)[nH]c2c1 | – | inactive: 3.39%
Cc1nc2sccn2c(=O)c1S(=O)(=O)Nc1ccc(N2CCN(C)CC2)cc1 | – | inactive: 5.01%
COc1ccc(/C=C\C(=O)NCc2ccc3c(c2)cc(C)n3C)cc1OC | inconclusive: 25.1 µM [inhibitor, single point] | –
Cc1cc(-c2n[nH]c(=S)n2Cc2ccco2)nn1C | – | inactive: -24.5%
CC1=C(C(=O)O)N2C(=O)C(NC(=O)C(N)C3=CCC=CC3)C2SC1 (stereo not given) | active: 7.92 µM | –
COc1ccc(CN2CCc3cc(OC)c(OC)cc3C2)cc1O | inconclusive: 25.1 µM [inhibitor, partial curve] | –
C=C(C(=O)O)C(CCCCCC)C(=O)O (stereo not given) | inconclusive: 15.8 µM [inhibitor, partial curve] | –
N#CC1=C(N)S[C@H](C(=O)C23CC4CC(CC(C4)C2)C3)[C@H]1c1ccncc1 | inconclusive: 15.8 µM [inhibitor, single point] | –
CCOC(=O)N1N=C(c2ccccc2)CC1(O)C(F)(F)F (stereo not given) | – | inactive: 0.477%
COc1ccc(C(=O)Nc2ccc(NC(=O)c3cccs3)cn2)cc1 | inconclusive: 25.1 µM [inhibitor, single point] | –
CC(C)Cn1c(-c2ccncc2)n[nH]c1=S | inconclusive: 25.1 µM [inhibitor, partial curve] | –
C[C@H](NC(=O)c1nc[nH]c1C(=O)N1CCN(C(=O)OC(C)(C)C)CC1)C(=O)OCc1ccccc1 | inconclusive: 14.1 µM [inhibitor, partial curve] | –
O=C(O)c1ccc2c(c1)N(Cc1ccccc1F)C(=O)c1ccccc1S2=O (stereo not given) | inconclusive: 17.7 µM [activator, single point] | –
CCc1ccc(OCC(O)CN2CCN(c3ccc(OC)cc3)CC2)cc1 (stereo not given) | inconclusive: 35.5 µM [inhibitor, partial curve] | –
CCOC(=O)N1CCN(C/C(C)=C/c2ccccc2)CC1 | inconclusive: 17.8 µM [inhibitor, partial curve] | –
CC1=CC(=NOC(=O)/C=C/c2ccccc2)C=C(C)C1=O | inconclusive: 17.7 µM [inhibitor, partial curve] | –
CN1CCN(c2ncnc3ccc(-c4cccc(NS(C)(=O)=O)c4)cc23)CC1 | – | inactive: -2.45%
CC1=NN(C(N)=S)C(C)(C)C1 | active: 11.2 µM | –
